How the values were obtained:
BTN3A1 = target: T1, BTN3A1 (Homo sapiens, UniProt O00481); experiment: BTN isoform binding of yeast display antibodies (Octet isoform binding profile, binding affinity); settings: Table 4; Yes/No; hIgG1-297A isotype
T1 construct: Fc (Fc-chimera); purchased R&D systems; host or cells: HEK293
Experimental: (§1) De novo antibody discovery for butyrophilin isoforms was executed on pre-immune yeast display libraries. The soluble proteins used in the yeast display selections were biotinylated recombinant proteins of HEK293-expressed Fc-chimeras BTN2A2, BTN3A1, BTN3A2, and BTN3A3 from R&D systems. All proteins were analyzed before use by Biacore binding against control antibody anti-BTN Monoclonal Antibody (eBioBT3.1 (20.1, BT3.1), SEC, SDS-PAGE, and endotoxin.
(§2) Each biotinylated BTN isoform was subjected to pre-immune yeast display libraries for selections. The selections started with MACS (Magnetic Bead-based Cell Separation) cell separations for the first two rounds to enrich clones that bind to the targeted BTN isoforms, and applied fluorescence activated cell sorting (FACS) at later rounds to isolate clones that were with high affinity and isoform specificity. Due to the high sequence homology among all BTN isoforms, isoform-specific selection pressures were achieved by introducing ten-fold molar ratio of the non-biotinylated BTN isoforms to the biotinylated and selection-targeted BTN isoforms in the later rounds of the selections.
(§3) The isolated clones were then sequenced to identify the unique antibodies and screened for isoform binding profiles by Octet. To ensure the isolated antibodies have broad-epitopic coverage, all the antibodies were subjected to binning against the benchmark antibodies: BTN20.1 (Biolegend, agonist) and BTN103.2 (Creative Biolabs, antagonist). Purified antibodies were submitted for functional assay screening, as described below.
(§4) Given the sequence homology between BTN3A isoforms (>90%), this outcome is expected. Within all 105 antibodies from the BTN3A1 campaign and 125 antibodies from the BTN3A2 campaign, each antibody was characterized into one of the bins: Biolegend-bin, Creative-Biolabs-bin, Empty Set, or Overlapping.
(§5) Using the protocols described in detail in Example 2B and Example 3A, anti-BTN3A antibodies were screened for a functional role in T cell activation and reactivation of latent HIV. Antibody screens were conducted using HIV latent CD4+ T cells (prepared as described in Example 1A). T cell activation was quantified by production of IFNγ, and reactivation of latent HIV was quantified by luciferase assay. […] Detailed information on binding profile with binding affinity (KD) (Table 4) and antibody isotype and sequence (Table 5) are provided for two representative antibodies from each of the three functional categories observed.

BTN3A2 = target: T2, BTN3A2 (Homo sapiens, UniProt P78410); experiment: as above; settings: Table 4; Yes/No; hIgG1-297A isotype
T2 construct: Fc (Fc-chimera); purchased R&D systems; host or cells: HEK293
Experimental: as §1, §2, §3, §4, §5

BTN3A3 = target: T3, BTN3A3 (Homo sapiens, UniProt O00478); experiment: as above; settings: Table 4; Yes/No; hIgG1-297A isotype
T3 construct: Fc (Fc-chimera); purchased R&D systems; host or cells: HEK293
Experimental: as §1, §2, §3, §4, §5

[1] = system: latent HIV in HIV latent primary CD4+ T cells; experiment: Latent virus reactivation by plate-coated anti-BTN3A antibody plus anti-CD3, Nano-Glo Luciferase Assay; type: cell-based, HIV-1; settings: with anti-CD3, Yes/No
Experimental: Latent HIV-1 infected primary CD4+ T cells were generated following a protocol licensed from the laboratory of Jonathan Karn (Case Western Reserve University, Cleveland, Ohio). Briefly, naive CD4^+ T cells isolated from 2 healthy human donors were propagated for 6 days in growth medium supplemented with Dynabeads Human T-Activator CD3/CD28 (25 μl/10^6 cells) and Th17 polarizing cytokines: TGF-β1 (5 ng/ml), IL-4 (10 ng/ml), IFNγ (10 ng/ml), IL-1β (10 ng/ml), IL-6 (30 ng/ml), IL-23 (50 ng/ml), IL-8 (15 ng/ml), IL-10 (10 ng/ml). […]. […]
To assess if BTN3A modulation has impact on HIV latency reversal, sterile 96-well flat bottom tissue culture plates (Corning) were coated with various concentrations of anti-CD3 and anti-BTN3 20.1 antibodies (10 μg/ml, 3 μg/ml, 1 μg/ml, and 0.3 μg/ml) in PBS for 16h in a 4° C. refrigerator. […] At 24 h post treatment latent virus reactivation was measured using a Nano-Glo® Luciferase Assay (Promega) (FIG. 5).
(§6) Using the protocols described in detail in Example 2B and Example 3A, anti-BTN3A antibodies were screened for a functional role in T cell activation and reactivation of latent HIV. […] T cell activation was quantified by production of IFNγ, and reactivation of latent HIV was quantified by luciferase assay. […]

[2] = system: HIV latent primary CD4+ T cells; experiment: T cell activation by plate-coated anti-BTN3A antibody plus anti-CD3, IFNγ expression (V-PLEX); type: cell-based, human; settings: production of IFNγ, with anti-CD3, Yes/No
Experimental: Latent HIV-1 infected primary CD4+ T cells were generated following a protocol licensed from the laboratory of Jonathan Karn (Case Western Reserve University, Cleveland, Ohio). Briefly, naive CD4^+ T cells isolated from 2 healthy human donors were propagated for 6 days in growth medium supplemented with Dynabeads Human T-Activator CD3/CD28 (25 μl/10^6 cells) and Th17 polarizing cytokines: TGF-β1 (5 ng/ml), IL-4 (10 ng/ml), IFNγ (10 ng/ml), IL-1β (10 ng/ml), IL-6 (30 ng/ml), IL-23 (50 ng/ml), IL-8 (15 ng/ml), IL-10 (10 ng/ml). […]. Reactivation of HIV-1 proviruses from latently infected cells was performed by treatment with Dynabeads Human T-Activator CD3/CD28 (25 μl/10^6 cells) or PMA/Ionomycin.
We next addressed if treatment with anti-BTN3A antibodies reverses BTN3A-mediated blockade in T cell activation. […] At 72 h following treatment T cell activation was measured based on IFNγ expression using a V-PLEX proinflammatory panel 1 human assay (Meso Scale Discovery, Rockville, Md.) (FIG. 4).
as §6

T1 sequence (O00481 with tags, fused parts or gaps limits assumed): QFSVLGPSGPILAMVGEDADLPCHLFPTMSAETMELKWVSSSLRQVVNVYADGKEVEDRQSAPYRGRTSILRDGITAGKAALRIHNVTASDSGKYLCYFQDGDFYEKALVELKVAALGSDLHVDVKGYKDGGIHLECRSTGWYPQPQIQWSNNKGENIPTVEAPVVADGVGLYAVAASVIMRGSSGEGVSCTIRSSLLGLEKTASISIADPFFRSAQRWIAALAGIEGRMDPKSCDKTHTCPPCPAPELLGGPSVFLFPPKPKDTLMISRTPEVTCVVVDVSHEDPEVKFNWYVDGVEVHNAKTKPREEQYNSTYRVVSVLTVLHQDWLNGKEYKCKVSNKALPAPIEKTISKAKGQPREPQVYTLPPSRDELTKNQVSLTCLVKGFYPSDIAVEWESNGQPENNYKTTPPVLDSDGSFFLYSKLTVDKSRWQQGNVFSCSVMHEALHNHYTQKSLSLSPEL
T3 sequence (O00478 with tags, fused parts or gaps limits assumed): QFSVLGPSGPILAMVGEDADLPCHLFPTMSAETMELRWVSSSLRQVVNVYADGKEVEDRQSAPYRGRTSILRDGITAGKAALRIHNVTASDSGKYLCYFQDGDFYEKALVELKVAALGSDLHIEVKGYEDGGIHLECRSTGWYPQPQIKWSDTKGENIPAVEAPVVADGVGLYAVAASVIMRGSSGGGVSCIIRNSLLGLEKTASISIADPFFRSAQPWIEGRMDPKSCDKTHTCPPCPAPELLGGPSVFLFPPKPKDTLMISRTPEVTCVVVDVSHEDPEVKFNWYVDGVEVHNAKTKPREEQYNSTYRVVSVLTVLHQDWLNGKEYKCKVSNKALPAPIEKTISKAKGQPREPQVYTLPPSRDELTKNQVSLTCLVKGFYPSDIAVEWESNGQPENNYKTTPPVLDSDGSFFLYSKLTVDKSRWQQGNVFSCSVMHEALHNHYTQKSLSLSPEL
T2 sequence (P78410 with tags, fused parts or gaps limits assumed): as the sequence (O00478 with tags, fused parts or gaps limits assumed) above, with R37K, D120N, I123V, K149Q, D152N, T153A, A174E, S184G, G187E counted along it

B1: 2L (antibody, V domains shown)
VH: [left out - about 100 residues]PPEVVGYGEDWFDPWGQGTLVTVSS
VL: DIQMTQSPSSVSASVGDRVTITCRASQGISSWLAWYQQKPGKAPKLLIYAASNLQSGVPSRFSGSGSGTDFTLTISSLQPEDFATYYCQQGNDLPITFGGGTKVEIK
In the case of B1, the “BTN3A1 Binding” value (BTN3A1) is reported as “Yes”, the “BTN3A2 Binding” value (BTN3A2) is reported as “No” and the “BTN3A3 Binding” value (BTN3A3) is reported as “No”. The “Antibody function HIV reactivation” value [1] was “Yes” and the “Antibody function T cell activation” value [2] was “No”.

B2: 1F (antibody, V domains shown)
VH: QVQLQESGPGLVKPSQTLSLTCTVSGGSISSGGYYWSWIRQHPGKGLEWIGSIYYSGSTYYNPSLKSRVTISVDTSKNQFSLKLSSVTAADTAVYYCARLHSSQSSSTYWGQGTLVTVSS
VL: [left out - about 100 residues]YTFGGGTKVEIK
B2 was tested, and the “BTN3A1 Binding” value (BTN3A1) was “Yes”, the “BTN3A2 Binding” value (BTN3A2) was “No” and the “BTN3A3 Binding” value (BTN3A3) was “No”. For the same molecule, the “Antibody function HIV reactivation” value [1] was “No” and the “Antibody function T cell activation” value [2] was “Yes”.
